Reference: PubChem BioAssay AID485294 (National Center for Advancing Translational Sciences (NCATS), 2010)
Out of some 370,000 compounds screened, about 150 (0.041%) were called active. The inconclusive results got no clear call from the source; some entries with a clear call stand among them for comparison. Calls come from the whole dose curve; as a rule, active = well fitted inhibition curve with a large enough effect; inconclusive = small, poorly fitted or top-dose-only effect; inactive = flat fitted curve, though single readings scatter. No potency is given beside an inconclusive call; the fits are too rough.

target: Beta-lactamase (Escherichia coli (strain K12)) (UniProt P00811); experiment: qHTS Inhibitors of AmpC Beta-Lactamase (assay with detergent); conditions: AmpC hydrolysis of nitrocefin, absorbance 480 nm, 0.01% Triton; activity change, negative = inhibition: at 114 µM (top of the series); note: nearly all actives have a fitted effect of over 25% in size;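 for activity change, negative = inhibition: 0% = no-compound wells and -100% = no-enzyme wells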
Method in brief: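 20 mM phosphate pH 7.0 + 0.01% (detergent screen) or 0.0001% Triton X-100; 5.3 nM AmpC reagent; cpd preinc 15 min RT; nitrocefin (800 uM stock) to start; A480 q20 s × 4 min; Activity was normalised to no-enzyme and no-compound control wells.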
Potency is the fitted concentration of half-maximal effect; tags give direction and shape of the fitted curve.

UniProt P00811, sequence (P00811 whole entry, looked up): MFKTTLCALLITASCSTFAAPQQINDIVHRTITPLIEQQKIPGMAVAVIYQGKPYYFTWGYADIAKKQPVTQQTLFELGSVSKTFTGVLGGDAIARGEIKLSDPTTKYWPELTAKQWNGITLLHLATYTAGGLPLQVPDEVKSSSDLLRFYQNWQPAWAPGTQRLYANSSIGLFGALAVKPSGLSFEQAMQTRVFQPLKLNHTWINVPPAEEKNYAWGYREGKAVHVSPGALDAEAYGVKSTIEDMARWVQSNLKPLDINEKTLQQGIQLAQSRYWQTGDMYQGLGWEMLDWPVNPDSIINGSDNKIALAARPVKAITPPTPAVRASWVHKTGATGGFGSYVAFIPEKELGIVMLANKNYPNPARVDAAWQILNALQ

Row | Compound | Potency | activity change, negative = inhibition
1 | COc1cc(C2NC(=O)NC(C)=C2C(=O)OC2CCCCC2)cc(Br)c1O (stereo not drawn) | inconclusive [inhibitor, full curve, poor fit] | 
2 | CCn1c2ccccc2c2cc(NC(=O)c3cccc(OC)c3OC)ccc21 | inconclusive [inhibitor, single point] | 
3 | COC(=O)C1(C)NC(c2ccc(O)cc2)C2C(=O)N(c3ccccc3)C(=O)C21 (stereo not drawn) | inconclusive [inhibitor, full curve, poor fit] | 
4 | CCOC(=O)c1ccc[n+](CC(=O)c2ccccc2)c1 | inconclusive [inhibitor, partial curve, poor fit] | 
5 | COCCn1c(C)cc(O)c(C(c2ccccc2OC)N2CCN(c3ccccc3)CC2)c1=O (stereo not drawn) |  | inactive: 14.7%
6 | CCOC(=O)N1CCN(S(=O)(=O)c2ccc(OCC)cc2)CC1 | inconclusive [inhibitor, single point] | 
7 | O=C1CC(N2CCCCCC2)C(=O)N1c1ccc2c(c1)OCO2 (stereo not drawn) |  | inactive: -7.58%
8 | COc1ccc(CCNS(=O)(=O)c2cccc(C(=O)O)c2)cc1OC | inconclusive [inhibitor, full curve, poor fit] | 
9 | COc1ccc(-n2ncc3c2CC(C)(C)CC3NC(=O)c2cnc(C)cn2)cc1 (stereo not drawn) |  | inactive: 2.83%
10 | Cc1c(NC(=O)C(C)OC(=O)c2ccc([N+](=O)[O-])s2)c(=O)n(-c2ccccc2)n1C (stereo not drawn) | inconclusive [inhibitor, full curve, poor fit] | 
11 | Cc1ccc2c(cnn2C(=O)CCC(=O)NC2CCCCC2)c1 | inconclusive [inhibitor, partial curve, poor fit] | 
12 | C[C@H](NC(=O)[C@H](Cc1ccccc1)n1c(=O)[nH]c2ccccc2c1=O)C(=O)N1CCC(C(=O)O)CC1 |  | inactive: -13.7%
13 | Cc1nc(SC(C)C(=O)NC2CCCCC2C)c2c(C)c(C)sc2n1 (stereo not drawn) | inconclusive [inhibitor, partial curve] | 
14 | O=S1(=O)CCOC[C@H](c2ccccc2)N1Cc1cccc(F)c1 | inconclusive [inhibitor, partial curve, poor fit] | 
15 | CC(=O)Nc1ccc(NC(=O)c2sc3nc4c(c(-c5ccc(C)cc5)c3c2N)CCC4)cc1 | inconclusive [inhibitor, full curve, poor fit] | 
16 | O=C(Nc1ccc(Oc2ccc(Cl)cc2)c(Cl)c1)c1cc(I)cc(I)c1O | inconclusive [inhibitor, partial curve] | 
17 | OCCC1CN(Cc2cccn2-c2nccs2)CCN1Cc1ccc(F)c(F)c1 (stereo not drawn) |  | inactive: 12.2%
18 | COc1cccc(CNC(=O)N[C@@H](CC(C)C)C(=O)O)c1 | inconclusive [inhibitor, full curve, poor fit] | 
19 | CCc1nnc(SCC(=O)NC2CCCCC2)nc1CC | inconclusive [inhibitor, single point] | 
20 | COc1ccc(N2C(=O)CC(NCc3cccs3)C2=O)cc1 (stereo not drawn) | inconclusive [inhibitor, full curve, poor fit] | 
21 | Cc1cccc(NC(=O)CNC(=O)c2cn(Cc3ccccc3)nc2-c2cccnc2)c1C | inconclusive [inhibitor, full curve, poor fit] | 

Row | Compound | Potency | activity change, negative = inhibition
22 | COc1cccc(CN=C2Nc3ccccc3CS2)c1 | inconclusive [inhibitor, partial curve, poor fit] | 
23 | Oc1ccc(-c2[nH]ncc2-c2nc3ccccc3s2)c(O)c1 | inconclusive [inhibitor, full curve] | 
24 | O=C(NCc1cccnc1)c1ccccc1NC(=O)c1c(F)cccc1F | inconclusive [inhibitor, single point] | 
25 | COc1ccc(S(=O)(=O)CCc2nc3ccccc3s2)cc1 | inconclusive [inhibitor, full curve, poor fit] | 
26 | O=C(NCCCN1CCOCC1)C(=O)NCC1OCCN1S(=O)(=O)c1ccc(F)cc1 (stereo not drawn) | inconclusive [inhibitor, single point] | 
27 | CNC(=S)N(Cc1ccc(OC)cc1)C1CC(=O)N(c2ccc(Cl)cc2)C1=O (stereo not drawn) | inconclusive [inhibitor, full curve, poor fit] | 
28 | COc1ccc(S(=O)(=O)N2Cc3ccccc3CC2C(=O)Nc2cc(Cl)ccc2Cl)cc1 (stereo not drawn) |  | inactive: 0.215%
29 | Cc1nn(-c2ccccc2)c(N)c1N=Nc1cccnc1 | inconclusive [inhibitor, single point] | 
30 | O=C(COC(=O)Cn1cnc2ccccc21)NCCC1=CCCCC1 | inconclusive [inhibitor, partial curve, poor fit] | 
31 | O=c1[nH]c2ccc(Cl)cc2c(-c2ccccc2)c1SC(=S)N1CCOCC1 |  | inactive: -6.83%
32 | CSCCC(NC(=O)COc1ccccc1)C(=O)OCC(=O)c1ccccc1 (stereo not drawn) |  | inactive: 2.71%
33 | COc1ccc(CCNC(=O)CSc2nnnn2Cc2ccc3c(c2)OCO3)cc1OC | inconclusive [inhibitor, full curve] | 
34 | COC(=O)CCCn1c(C)cc(C(=O)CCl)c1C |  | inactive: 4.84%
35 | C/C(=N\Nc1ccc([N+](=O)[O-])cc1[N+](=O)[O-])C(C)C(C)C (stereo not drawn) | inconclusive [inhibitor, full curve, poor fit] | 
36 | CCOc1ccccc1NC(=O)CSc1nc2cccnc2n1C | inconclusive [inhibitor, full curve] | 
37 | Cn1ccc2cc(-c3ccc4ncnc(NCc5ccc6c(c5)OCO6)c4c3)ccc21 |  | inactive: -2.2%
38 | COCCCNC(=O)c1cccn2c(=O)c3cc4ccccc4cc3nc12 | inconclusive [inhibitor, full curve, poor fit] | 
39 | CCn1nccc1C(=O)NC1=C(C#N)CCC1 | inconclusive [inhibitor, full curve] | 
40 | O=C(c1ccco1)N(Cc1ccco1)c1ccc(O)cc1 | inconclusive [inhibitor, partial curve, poor fit] | 
41 | N#Cc1cc2c(nc1SCC(=O)Nc1ccc(Cl)cc1)C1CCN2CC1 | inconclusive [inhibitor, partial curve] | 
42 | COc1ccccc1NC(=O)Nc1nc(CC(=O)N2CCN(c3ccccc3OC)CC2)cs1 | inconclusive [inhibitor, full curve, poor fit] | 

Row | Compound | Potency | activity change, negative = inhibition
43 | Cc1ccc(-c2nc(CS(=O)(=O)CC(=O)Nc3cc(F)ccc3F)c(C)o2)cc1 | inconclusive [inhibitor, partial curve, poor fit] | 
44 | Cn1c(SCC(=O)N/N=C/C=C/c2ccccc2[N+](=O)[O-])nc2ccccc21 | inconclusive [inhibitor, partial curve] | 
45 | Cc1ccc(Cn2c(SCCN3CCOCC3)nc3c2c(=O)n(C)c(=O)n3C)cc1 | inconclusive [inhibitor, full curve, poor fit] | 
46 | Cc1sc2c(c1C)c(=O)n(CCc1ccccc1)c(=O)n2Cc1ccc(C(C)(C)C)cc1 |  | inactive: 21.1%
47 | O=C(NCC(c1cccs1)N1CCOCC1)c1ccc(Br)o1 (stereo not drawn) |  | inactive: -5.2%
48 | O=C(Nc1ccc(-c2ccco2)cc1)C1CCCN(Cc2ccc(CO)o2)C1 (stereo not drawn) | inconclusive [inhibitor, full curve] | 
49 | CCCOc1ccc(C(=O)Nc2ccc(NC(=O)c3cccs3)cc2)cc1 | inconclusive [inhibitor, full curve, poor fit] | 
50 | O=C(NCC1(N2CCOCC2)CCCCC1)c1ccc(Cl)c(S(=O)(=O)NCc2ccco2)c1 | inconclusive [inhibitor, partial curve, poor fit] | 
51 | CCCc1nnc2n1N=C(c1ccc(C)cc1)CS2 | inconclusive [inhibitor, full curve] | 
52 | CCC(C)(C)NC(=O)C(c1cccn1C)N(C(=O)Cn1nnc2ccccc21)c1ccccc1OC (stereo not drawn) | inconclusive [inhibitor, partial curve, poor fit] | 
53 | CCOC(=O)C(C)c1nn(C)c(=O)c2ccccc12 (stereo not drawn) | inconclusive [inhibitor, partial curve] | 
54 | Cn1nc(C(=O)NCC2COc3ccccc3O2)c2ccccc2c1=O (stereo not drawn) | inconclusive [inhibitor, full curve, poor fit] | 
55 | Cc1cccc(NC(=O)C2CC(=O)N(Cc3ccccc3)C2)n1 (stereo not drawn) | inconclusive [inhibitor, full curve] | 
56 | O=C(NNc1c2ccccc2nc2ccccc12)c1ccccc1O | inconclusive [inhibitor, full curve, poor fit] | 
57 | O=C(CSc1nc2ccccc2s1)N1CCOCC1 |  | inactive: 1.89%
58 | CCCc1cc(=O)n2[nH]c(NCc3c(F)cccc3Cl)nc2n1 | inconclusive [inhibitor, full curve, poor fit] | 
59 | COc1cc(NC(=O)CCN2CCN(CCO)CC2)cc(OC)c1 | inconclusive [inhibitor, full curve, poor fit] | 
60 | O=C(Cn1cc(/C=N/NC(=O)c2cccc(C(F)(F)F)c2)c2ccccc21)Nc1ccc(F)cc1 | inconclusive [inhibitor, partial curve, poor fit] | 
61 | COc1ccc(/C=C2\SC(=S)N(CCCC(=O)Nc3ccc(C(=O)O)cc3)C2=O)cc1OC | inconclusive [inhibitor, partial curve, poor fit] | 
62 | O=C(c1ccco1)N1CCN(S(=O)(=O)c2ccc3[nH]c(=O)oc3c2)CC1 | inconclusive [inhibitor, partial curve] | 
63 | CCCCNC(=S)N(C)/N=C/c1ccccc1F | inconclusive [inhibitor, single point] | 
